Consider 23 molecules from the supplement of paper PMC10037445.

The structures appear in SMILES notation. Several values for one entry are separate records, joined by “and”; a condition that tells them apart may be missing. Identical values can stand only once. In all, about 2,900 compounds were measured (“NF-kB SEAP reporter activity, fold change vs agonist alone”: median about 0.99, highest 2% from about 2.6 on). The list shows a part of the results.

The test system of test [1] is RAW-Dual. Briefly: NF-kB SEAP reporter activity, fold change vs agonist alone; higher = enhanced NF-kB activity. As to conditions: library stock concentration (final ~1000-fold dilution): 10 mM, cytotoxicity flag (confluency mask): not cytotoxic. An outline of the steps:
(§1)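 RAW-Dual macrophages were seeded in DMEM at 50,000 cells/well in 384-well plates, given 50 nL of library stock by pin tool, and given a PRR agonist 1 h later. Plates were held at 37 °C, 5% CO2 for 20 hours, after which supernatant was read for IRF by QuantiLuc luminescence and for NF-κB by QuantiBlue absorbance at 620 nm. Reporter activity is expressed as fold change over wells that received agonist alone. A well was called cytotoxic when IncuCyte confluency fell below 70% of agonist controls in both mask sets.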

Test [2] concerns RAW-Dual. Briefly: NF-kB SEAP reporter activity, fold change vs agonist alone; cytotoxicity flag (confluency mask): not cytotoxic; higher = enhanced NF-kB activity. The method, boiled down:
as §1

[3] abbreviates: agonist: ODN 1826 (TLR9) 0.5 ug/mL.
Where [4] appears, read: agonist: Pam2CSK4 (TLR2/6) 0.1 ug/mL.
Where [5] appears, read: agonist: Pam3CSK4 (TLR2/1) 0.1 ug/mL.

On to `Cn1c(Nc2ccc(C(F)(F)F)cc2)nc2cc(Oc3ccnc(-c4ncc(C(F)(F)F)[nH]4)c3)ccc21`, for which the “NF-kB SEAP reporter activity” value in test [1] (agonist: Imiquimod (TLR7) […]) was 0.103; in test [1] (agonist: MPLA (TLR4) […]), 0.11.

As for `Cn1c(Nc2ccc(C(F)(F)F)cc2)nc2cc(Oc3ccnc(-c4ncc(C(F)(F)F)[nH]4)c3)ccc21` (library stock concentration (final ~1000-fold dilution): 10 mM), the “NF-kB SEAP reporter activity” value in test [2] (agonist: LPS (TLR4) 0.1 ug/mL) came to 0.249; in test [2] (setting [3]) it was 0.146; in test [2] (setting [4]), 0.101; in test [2] (setting [5]) it was 0.158.

Consider `COC1OC(CO)C(O)C(O)C1O` (stereo not drawn) (library stock concentration (final ~1000-fold dilution): 10 mM), for which the “NF-kB SEAP reporter activity” value amounted to 1.06 in test [2] (agonist: LPS (TLR4) 0.1 ug/mL), 1 in test [2] (setting [3]), 1.09 in test [2] (setting [4]) and 1.02 in test [2] (setting [5]).

As for `COC1OC(CO)C(O)C(O)C1O` (stereo not drawn), in test [1] (agonist: MPLA (TLR4) […]), the “NF-kB SEAP reporter activity” value turned out to be 1.07.

In the case of `CC(C)CC(C=O)NC(=O)C(CC(C)C)NC(=O)C(CC(C)C)NC(=O)OCc1ccccc1` (stereo not drawn), the “NF-kB SEAP reporter activity” value in test [1] (agonist: Imiquimod (TLR7) […]) was determined as 0.958; in test [1] (agonist: MPLA (TLR4) […]), 0.952.

On to `CC(C)CC(C=O)NC(=O)C(CC(C)C)NC(=O)C(CC(C)C)NC(=O)OCc1ccccc1` (stereo not drawn) (library stock concentration (final ~1000-fold dilution): 10 mM), for which the “NF-kB SEAP reporter activity” value in test [2] (agonist: LPS (TLR4) 0.1 ug/mL) was determined as 0.47; in test [2] (setting [3]), 0.967; in test [2] (setting [4]) it was 1.13; in test [2] (setting [5]), 0.768.

For `COc1cc2ncnc(Nc3cccc(Cl)c3F)c2cc1OC(=O)N1CCN(C)CC1C` (stereo not drawn) (library stock concentration (final ~1000-fold dilution): 10 mM), the “NF-kB SEAP reporter activity” value in test [2] (agonist: LPS (TLR4) 0.1 ug/mL) worked out at 1.19; in test [2] (setting [3]), 0.84; in test [2] (setting [4]), 1.19; in test [2] (setting [5]) it was 1.1.

With `COc1cc2ncnc(Nc3cccc(Cl)c3F)c2cc1OC(=O)N1CCN(C)CC1C` (stereo not drawn), the results for the “NF-kB SEAP reporter activity” value in test [1] (agonist: Imiquimod (TLR7) […]) and in test [1] (agonist: MPLA (TLR4) […]) were 0.868 and 1.05, respectively.

On to `NCc1c[nH]c(=S)n1C1CCc2c(F)cc(F)cc2C1` (stereo not drawn) (library stock concentration (final ~1000-fold dilution): 10 mM), for which the “NF-kB SEAP reporter activity” value in test [2] (agonist: LPS (TLR4) 0.1 ug/mL) came to 0.897; in test [2] (setting [3]), 0.9; in test [2] (setting [4]) it was 0.899; in test [2] (setting [5]), 0.617.

Turning to `NCc1c[nH]c(=S)n1C1CCc2c(F)cc(F)cc2C1` (stereo not drawn), the “NF-kB SEAP reporter activity” value in test [1] (agonist: MPLA (TLR4) […]) was 0.992.

Take `CC(=O)SCC(Cc1ccccc1)C(=O)NCC(=O)OCc1ccccc1` (stereo not drawn): the “NF-kB SEAP reporter activity” value in test [1] (agonist: Imiquimod (TLR7) […]) amounted to 0.87; in test [1] (agonist: MPLA (TLR4) […]), 0.984.

Consider `CC(=O)SCC(Cc1ccccc1)C(=O)NCC(=O)OCc1ccccc1` (stereo not drawn) (library stock concentration (final ~1000-fold dilution): 10 mM), for which the “NF-kB SEAP reporter activity” value in test [2] (agonist: LPS (TLR4) 0.1 ug/mL) came to 0.85; in test [2] (setting [3]), 0.956; in test [2] (setting [4]) it was 1.05; in test [2] (setting [5]), 1.15.

In the case of `CC1COc2c(N3CCN(C)CC3)c(F)cc3c(=O)c(C(=O)O)cn1c23` (stereo not drawn) (library stock concentration (final ~1000-fold dilution): 10 mM), the “NF-kB SEAP reporter activity” value in test [2] (agonist: LPS (TLR4) 0.1 ug/mL) was 1.22 and 1.28; in test [2] (setting [3]), 0.963 and 1.11; in test [2] (setting [4]), 1.1 and 1.11; in test [2] (setting [5]), 1.12 and 1.19.

On to `Cc1n[nH]c2ncc(C(=O)N3CCCC3c3ccc(Cl)cc3)cc12` (stereo not drawn) (library stock concentration (final ~1000-fold dilution): 10 mM), for which the “NF-kB SEAP reporter activity” value in test [2] (agonist: LPS (TLR4) 0.1 ug/mL) amounted to 2.51; in test [2] (setting [3]) it was 2.07; in test [2] (setting [4]), 1.61; in test [2] (setting [5]), 2.59.

For `Cc1n[nH]c2ncc(C(=O)N3CCCC3c3ccc(Cl)cc3)cc12` (stereo not drawn), the “NF-kB SEAP reporter activity” value was 1.44 in test [1] (agonist: Imiquimod (TLR7) […]) and 1.77 in test [1] (agonist: MPLA (TLR4) […]).

With `Cl.NCc1ccc(S(N)(=O)=O)cc1`, the “NF-kB SEAP reporter activity” value in test [1] (agonist: Imiquimod (TLR7) […]) was 0.942; in test [1] (agonist: MPLA (TLR4) […]) it was 1.

`Cl.NCc1ccc(S(N)(=O)=O)cc1` (library stock concentration (final ~1000-fold dilution): 10 mM): the “NF-kB SEAP reporter activity” value in test [2] (agonist: LPS (TLR4) 0.1 ug/mL) amounted to 0.838; in test [2] (setting [3]), 0.949; in test [2] (setting [4]), 1.02; in test [2] (setting [5]) it was 0.951.

In the case of `CC12CCC3c4ccc(O)cc4CC(CCCCCCCCCS(=O)CCCC(F)(F)C(F)(F)F)C3C1CCC2O` (stereo not drawn), the “NF-kB SEAP reporter activity” value in test [1] (agonist: Imiquimod (TLR7) […]) came to 0.89; in test [1] (agonist: MPLA (TLR4) […]), 0.904.

Turning to `CC12CCC3c4ccc(O)cc4CC(CCCCCCCCCS(=O)CCCC(F)(F)C(F)(F)F)C3C1CCC2O` (stereo not drawn) (library stock concentration (final ~1000-fold dilution): 10 mM), the “NF-kB SEAP reporter activity” value is 0.714 in test [2] (agonist: LPS (TLR4) 0.1 ug/mL), 0.721 in test [2] (setting [3]), 0.634 in test [2] (setting [4]) and 0.864 in test [2] (setting [5]).

Turning to `OCC1OC(c2ccc(F)c(Cc3cc4ccccc4s3)c2)C(O)C(O)C1O` (stereo not drawn), the “NF-kB SEAP reporter activity” value is 1.06 in test [1] (agonist: Imiquimod (TLR7) […]) and 1.04 in test [1] (agonist: MPLA (TLR4) […]).

`OCC1OC(c2ccc(F)c(Cc3cc4ccccc4s3)c2)C(O)C(O)C1O` (stereo not drawn) (library stock concentration (final ~1000-fold dilution): 10 mM): the “NF-kB SEAP reporter activity” value in test [2] (agonist: LPS (TLR4) 0.1 ug/mL) was 1.07; in test [2] (setting [3]), 0.948; in test [2] (setting [4]), 1.15; in test [2] (setting [5]) it was 1.17.

With `CC(C)=CCC[C@](C)(O[C@@H]1O[C@H](CO[C@@H]2O[C@H](CO)[C@@H](O)[C@H](O)[C@H]2O)[C@@H](O)[C@H](O)[C@H]1O)[C@H]1CC[C@]2(C)[C@@H]1[C@H](O)C[C@@H]1[C@@]3(C)CC[C@H](O[C@@H]4O[C@H](CO)[C@@H](O)[C@H](O)[C@H]4O[C@@H]4O[C@H](CO)[C@@H](O)[C@H](O)[C@H]4O)C(C)(C)[C@@H]3CC[C@]12C`, the results for the “NF-kB SEAP reporter activity” value in test [1] (agonist: Imiquimod (TLR7) […]) and in test [1] (agonist: MPLA (TLR4) […]) were 0.765 and 0.931, respectively.

As for `CC(C)=CCC[C@](C)(O[C@@H]1O[C@H](CO[C@@H]2O[C@H](CO)[C@@H](O)[C@H](O)[C@H]2O)[C@@H](O)[C@H](O)[C@H]1O)[C@H]1CC[C@]2(C)[C@@H]1[C@H](O)C[C@@H]1[C@@]3(C)CC[C@H](O[C@@H]4O[C@H](CO)[C@@H](O)[C@H](O)[C@H]4O[C@@H]4O[C@H](CO)[C@@H](O)[C@H](O)[C@H]4O)C(C)(C)[C@@H]3CC[C@]12C` (library stock concentration (final ~1000-fold dilution): 10 mM), the “NF-kB SEAP reporter activity” value in test [2] (agonist: LPS (TLR4) 0.1 ug/mL) came out at 0.674; in test [2] (setting [3]), 0.489; in test [2] (setting [4]), 0.243; in test [2] (setting [5]) it was 0.457.
